Source: paper PMC4336329 (PLoS ONE, 2015)
Out of some 310,000 compounds screened, about 2,200 (0.71%) showed an effect of 50% or more. The effect is printed as a negative number. The list shows a part of the results.

Each compound was assayed against human ether-à-go-go-related gene (hERG) potassium channel (human, UniProt Q12809) (assay: primary screen, population patch clamp on CHO cells stably expressing hERG).
Chain of human ether-à-go-go-related gene (hERG) potassium channel (Q12809 whole entry, looked up): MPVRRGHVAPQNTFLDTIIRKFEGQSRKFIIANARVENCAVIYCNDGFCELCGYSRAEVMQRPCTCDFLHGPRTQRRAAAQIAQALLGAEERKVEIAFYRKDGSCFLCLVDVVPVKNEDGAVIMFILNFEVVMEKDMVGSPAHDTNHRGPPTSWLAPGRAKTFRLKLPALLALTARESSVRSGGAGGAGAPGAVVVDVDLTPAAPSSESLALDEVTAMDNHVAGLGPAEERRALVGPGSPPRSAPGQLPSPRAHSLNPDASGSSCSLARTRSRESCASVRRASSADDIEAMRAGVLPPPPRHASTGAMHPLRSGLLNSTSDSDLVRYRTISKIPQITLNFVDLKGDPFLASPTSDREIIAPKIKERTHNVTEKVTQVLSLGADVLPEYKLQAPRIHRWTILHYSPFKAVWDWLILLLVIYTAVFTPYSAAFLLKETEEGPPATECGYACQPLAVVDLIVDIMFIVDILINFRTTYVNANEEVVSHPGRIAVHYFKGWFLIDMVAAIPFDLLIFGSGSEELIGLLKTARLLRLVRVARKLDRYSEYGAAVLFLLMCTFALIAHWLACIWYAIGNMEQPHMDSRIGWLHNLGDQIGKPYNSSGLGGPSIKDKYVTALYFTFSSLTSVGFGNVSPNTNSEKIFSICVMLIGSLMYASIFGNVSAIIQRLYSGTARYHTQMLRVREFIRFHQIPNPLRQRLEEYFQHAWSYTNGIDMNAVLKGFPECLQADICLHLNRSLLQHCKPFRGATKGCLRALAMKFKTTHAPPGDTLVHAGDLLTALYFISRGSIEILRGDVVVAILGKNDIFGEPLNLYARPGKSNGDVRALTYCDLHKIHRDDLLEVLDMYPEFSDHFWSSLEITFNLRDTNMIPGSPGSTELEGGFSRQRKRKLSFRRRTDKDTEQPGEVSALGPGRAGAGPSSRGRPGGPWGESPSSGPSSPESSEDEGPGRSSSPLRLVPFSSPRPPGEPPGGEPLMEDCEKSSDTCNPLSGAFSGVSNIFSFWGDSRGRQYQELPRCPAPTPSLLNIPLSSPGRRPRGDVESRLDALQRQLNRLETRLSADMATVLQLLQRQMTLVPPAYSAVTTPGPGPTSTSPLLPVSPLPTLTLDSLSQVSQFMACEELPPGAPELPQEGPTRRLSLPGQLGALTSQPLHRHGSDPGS

Compound	hERG current change (%, negative = inhibition) at 1uM [%]
Cc1nc(SCC(=O)Nc2c(C)n(C)n(-c3ccccc3)c2=O)c(C#N)c(C)c1C	-12.9
COc1ccc(C2CC(c3ccccc3)=NN2C(=O)COC(=O)c2cccc(S(=O)(=O)N3CCOCC3)c2)cc1 (centres unmarked)	14.9
Cc1ccccc1CN1CCN(Cc2ccccc2C(F)(F)F)CC1.O=C(O)C(=O)O	1.7
CCc1[nH]c(=O)c(C#N)c2c1COC(C)(C)C2	-0.316
OCCNc1nc(-c2ccccc2)c2ccccc2n1	-1.18
N#CCC(CNc1ncc(C(F)(F)F)cc1Cl)OC(=O)c1cccc(C(F)(F)F)c1 (centres unmarked)	-1.12
Cc1nc(N2CCN(c3ccccn3)CC2)c2c(C)c(C(=O)Nc3ccc(F)cc3)sc2n1	-21
COC(=O)Nc1nc2c(C)cccc2s1	-4.56
NC(=O)c1cc(S(=O)(=O)Nc2cccc(Cl)c2)cs1	14.6
Nc1cccc(S(=O)(=O)c2cccc(N)c2)c1	0.326
Cc1ccc(CNC2=NCCCCC2)n1C	5.96
Nc1cc(C(F)(F)F)ccc1Nc1ccccc1	14
O=C1NC(c2ccc(-c3ccccc3[N+](=O)[O-])o2)C(C(=O)c2ccc(Cl)cc2)C(O)(C(F)(F)F)N1 (centres unmarked)	13.6
COc1ccc(/C=C/C(=O)OCC(=O)N2CCCC2)c(OC)c1	15.8
COc1ccc(OC(=O)COc2cc(C)ccc2C)cc1	8.15
Cn1c2c(c(=O)n(C)c1=O)C1c3ccccc3OCC1C(C)(C)O2 (centres unmarked)	3.14
O=C(c1ccc(Cn2cc(Br)cn2)o1)N1N=C(C(F)F)CC1(O)C(F)F (centres unmarked)	4.16
N#C/C(=C\c1c(N2CCCCC2)nc2ccccn2c1=O)S(=O)(=O)c1ccccc1	6.11
CN(C)C(CNS(=O)(=O)c1ccc2ccccc2c1)c1ccccc1.Cl (centres unmarked)	9.14
CC(=O)c1ccc(Oc2ncnc(N)c2[N+](=O)[O-])cc1	14.7
CCOC(=O)c1c(C)nc(C)c(C(=O)OCC)c1-c1cccc(N)c1	9.85
CC(=O)c1cccc(OCc2cc(C(=O)N3C[C@H]4CC[C@H]3C4)no2)c1	14.5
O=C(Cn1cc([N+](=O)[O-])cn1)N1CCc2ccccc2C1	9.59

Compound	hERG current change (%, negative = inhibition) at 1uM [%]
COc1cc(C(=O)Nc2nc3ccc(S(=O)(=O)N4CCOCC4)cc3s2)cc(OC)c1OC	13.5
C=CCSc1nnnn1-c1ccc(OC)cc1	-5.94
Cc1cn(-c2cc(NC(=O)c3ccc(C)c(NC(=O)c4cccc(-c5cn[nH]c(=O)c5)c4)c3)cc(C(F)(F)F)c2)cn1.O=C(O)C(F)(F)F	13.2
CSc1nc(-c2ccco2)nn1S(=O)(=O)c1ccccc1	10.4
COc1ccc(COc2ccccc2C(N)=O)cc1F	6.23
O=C(COC(=O)c1cccnc1)Nc1ccc(F)cc1	3.47
CCOc1ccccc1OCCn1nc2ccccc2n1	11.8
O=C(O)C1=CC[C@@H](c2ccc(Cl)cc2)N(S(=O)(=O)c2ccc(Cl)cc2)C1	17.8
COc1cccc(N2CC(O)Cn3c2nc2c3c(=O)[nH]c(=O)n2C)c1 (centres unmarked)	7.58
CCC(=O)c1ccc(OCC(=O)NCC2(N3CCCCC3)CCCCC2)cc1	-12.3
COc1cc2c(cc1NC(=O)COC(=O)[C@@H](NC(=O)c1ccccc1)C(C)C)oc1ccccc12	8.52
Cc1ccc(F)c([C@H]2[C@H]3C=CC[C@@H](C)[C@@H]3C(=O)N2Cc2ccccc2)c1	6.98
CCCCn1c(-c2nn(C)cc2Cl)n[nH]c1=S	9.29
O=C1CCC(Cc2ccccc2)N1 (centres unmarked)	7.81
CSC(SC)=C(C#N)C(=O)c1ccccc1	12.3
Cc1oc2ccc(NS(=O)(=O)c3cccc4cccnc34)cc2c1C(=O)OC(C)C	10.8
CC(=O)c1ccc(N2CCN(C(=O)c3c(-c4ccccc4Cl)noc3C)CC2)cc1	-4.28
O=C(O)C(=O)O.O=C(c1cccc(Cl)c1)N1CCN(Cc2c[nH]c3ccccc23)CC1	-0.13
O=C(NCC1CCCO1)c1ccc2nc(N3CCCCC3)sc2c1 (centres unmarked)	-3.12
CCCCC(NC(=O)Cc1c(C)c2cc3c(-c4ccccc4)coc3c(C)c2oc1=O)C(=O)O (centres unmarked)	12.1
CN1CCC(OC(=O)c2ccccc2)CC1.Cl	10.9
CN(Cc1ccccc1)c1ncnc2ccc(Br)cc12	-0.465
O=C(NC(=S)Nc1ccccc1O)c1ccccc1Cl	5.01

Compound	hERG current change (%, negative = inhibition) at 1uM [%]
COC(=O)C1=C(N)Oc2cc(C)n(CCCn3ccnc3)c(=O)c2C1c1ccc(Cl)cc1 (centres unmarked)	-19.9
CCN1C(=O)[C@@H]2[C@@H](c3ccc(-c4ccc(F)cc4)cc3)N3CCC[C@@]3(C(=O)OC)[C@@H]2C1=O.O=C(O)C(F)(F)F	-4.41
CC(C)Oc1cccc(C(=O)C2CCCN(S(=O)(=O)C(C)C)C2)c1 (centres unmarked)	1.11
COc1cc(N2C(=O)c3ccccc3C2=O)c(Cl)cc1C(=O)OCC(=O)NCc1ccco1	-5
COc1cc2c(cc1OC)C1(CCCC1)CNC2C.Cl (centres unmarked)	6.52
COCCNC(=O)c1cc2ncc(Br)cn2n1	2.63
NC(=O)c1nnn(-c2cccc(C(F)(F)F)c2)c1-c1ccccc1	8.21
O=C(CCc1nc(-c2ccccc2Cl)no1)Nc1cccnc1	11
CCOC(=O)c1cc(CC)sc1NC(=O)CN1CCN(C(=O)C2CCCO2)CC1 (centres unmarked)	-31.9
O=C(Cn1ccc2ccccc2c1=O)NCCC(=O)N1CCN(c2cccc(Cl)c2)CC1	8.43
CCCCn1c(SCC(=O)N2c3ccccc3CCc3ccccc32)nc2c1c(=O)n(C)c(=O)n2C	5.33
CC(C)(C)C1CCc2c(sc3c2C(=O)NC(c2ccco2)N3)C1 (centres unmarked)	4.81
CCCCCCC(=O)Nc1ccc(Br)cn1	7.53
COc1ccc(CCNC(=O)C(=O)NCC2OCCN2S(=O)(=O)c2ccc(OC)c(OC)c2)cc1 (centres unmarked)	1.72
Cc1cc(C(=O)Nc2ccccc2C(=O)O)c(C)o1	13.1
COc1ccc(Cc2c[nH]c(=O)[nH]c2=O)cc1	2.09
COc1ccc(NC(=O)CSc2nccn2Cc2ccc(F)cc2)c(OC)c1	1.72
COc1ccc(Br)cc1CN1CCN(c2ncccn2)CC1	10.9
NC(=O)CSc1nnc(-c2cccc(S(=O)(=O)N3CCCCC3)c2)o1	18.5
O=C(Nc1cccc2ncccc12)c1cc(Br)ccc1Cl	8.11
CCOP(=O)(CN(CC)C(=O)c1ccccc1Br)OCC	5.06
CC(=O)CSc1ncnc2sc3c(c12)CCCC3	6.87
NS(=O)(=O)c1ccc(CNC(=O)C2(c3ccc(Cl)cc3)CC2)cc1	15.5

Compound	hERG current change (%, negative = inhibition) at 1uM [%]
CCOC(=O)c1sc(NC(=O)c2c(CC)noc2C)nc1C	-2.2
Cc1ccc(NC(=O)COc2ccc3c(c2)OCO3)c(C)c1	2.48
CN(NC(=O)c1ccccc1F)c1nc(C(F)(F)F)nc2ccccc12	14.3
CN1C[N+]([O-])=C(c2ccccc2)C1(C)C	13.2
COc1ccc(OC)c(S(=O)(=O)N2CCC(C(=O)N3CCCC3)CC2)c1	6.81
O=C(O)CSc1nnc2n(-c3ccccc3)c(=O)c3ccccc3n12	17.2
COC(=O)C[C@H]1c2cc(F)ccc2S(=O)(=O)N1c1ccc(N(C)C)cc1	14.2
c1ccc(Cc2noc(CN3CCCN(C4Cc5ccccc5C4)CC3)n2)cc1	-66
O=C(Cc1nnc(NC(=O)Nc2ccc(F)cc2)s1)Nc1ccccc1	12.9
O=C(OCC(F)(F)F)c1cccc(COc2ccc3ccccc3c2)c1	7.36
CCc1c(C)nc2cc(-c3ccc(OC)c(OC)c3)nn2c1N1CCCC1	11.6
O=c1[nH]c(/C=C/c2cccnc2)c([N+](=O)[O-])c(=O)[nH]1	13.8
CC(NS(=O)(=O)c1ccccc1)C(=O)NC1CCCC1 (centres unmarked)	2.97
Cc1nn(C(=O)c2cccc([N+](=O)[O-])c2)c(C)c1Br	9.17
COc1ccccc1C(CCN(Cc1cccs1)C(C)=O)c1ccco1 (centres unmarked)	11.5
COc1ccc(CNCC(O)COc2ccc(C)cc2[N+](=O)[O-])cc1 (centres unmarked)	-16.3
CCCCc1c(C)c2cc(C)ccc2[nH]c1=O	9.98
COc1ccc(S(=O)(=O)Nc2ccc(N3CCOCC3)nc2)cc1	8.26
Cc1ccc2c3c([nH]c2c1)C(=O)CC(C)(C)S3	-0.882
CCNc1cc(Nc2c(C)n(C)n(-c3ccccc3)c2=O)c([N+](=O)[O-])c2nonc12	4.86
